# Measurements as given in the supplement of paper PMC11417369.
# ± gives the standard deviation of the averaged measurements. The list shows a part of the results.
# System: PfAP2-EXP AP2 domain (GST-tagged)
# Experiment: gcPBM binding intensity (ln(normalized median fluorescence intensity)); higher = stronger DNA binding
# In short: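 After 1 h on an Agilent 4 × 180k array of primer-extended double-stranded 36-bp intergenic genomic probes and negative controls, bound GST-tagged P. falciparum DNA-binding domains were detected with Alexa488 anti-GST antibody and scanned at 488 nm. The domains had been expressed in E. coli, and binding took place in 1× PBS with 1% milk, 0.2 mg/ml BSA, 0.5% salmon testes DNA and 0.03% Triton X-100. Binding intensity is the highest Masliner-normalised natural-log median intensity across replicate spots of either probe orientation.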
row,Sequence,gcPBM binding intensity (ln)
1,ACATGTTTTATGTGCACACAAAGTTGTTATGAGGTT [CACACA_site4031],9.38 ± 0.53
2,ATATAATATTTCATGTGGACACATTTTATGATTGTA [XGTACX_site8770],8.74 ± 0.38
3,ATATATTATATATATTACAACTTAAGAATATACATA [TGCATGCA_negctrl_site371],8.28 ± 0.54
4,TCCTGTGATTATATAACACACATTATTGCTTATAAG [CACACA_site1518],8.77 ± 0.56
5,ATTGTTTATATTGATTGTACTCATTTTTTTTTTATT [XGTACX_site1946],8.84 ± 0.39
6,ATAGTAAACGAAATAAAAAGATTAGCATAATATCCT [CACACA_negctrl_site1730],8.74 ± 0.38
7,ATTATATATATATATACACACACACCCTAAAAATAT [CACACA_site8463],8.94 ± 0.56
8,ATATATTGAAAAAAATGTACGTATTTTTTTATGTTA [XGTACX_site4654],8.41 ± 0.26
9,AATCAAAATTAATTAACACACAATTTTAATATTCTT [CACACA_site2063],8.13 ± 0.43
10,TGTTTTTTGTTCTTTACAAAAAAAAAAAAAAAAAAA [GTGCAC_negctrl_site61],7.96 ± 0.46
11,TCTTGTATATACAGTAGTACTAAAAATTATTAAATA [XGTACX_site7896],8.47 ± 0.34
12,ACATACAAGAATTAAACACACACAAAATATAAATTC [CACACA_site8985],8.81 ± 0.45
13,GAAAACAAATATGTAGCACACATTCACATAATATAT [CACACA_site8731],8.43 ± 0.45
14,TTATGTTGTAAATGCACACATACAAATACAGATACA [CACACA_site4876],8.71 ± 0.3
15,ATAAATATAAAAATTTGTACATATATAGGTATAGGT [XGTACX_site1735],8.9 ± 0.57
16,ATTATAATGGTAAAGTGTACAAATTTTTATTACACC [XGTACX_site5274],8.64 ± 0.3
17,TTATTTCAAATTAATTTACACACTTCATACTAAAAG [CACACA_site9039],8.65 ± 0.43
18,CATTATTTACCGCCGTGTACGTAATGAGAAATTAAA [XGTACX_site4662],8.49 ± 0.39
19,TAATAAAAAAAGTGCACACACATAATATTTATATAT [CACACA_site7548],8.63 ± 0.24

row,Sequence,gcPBM binding intensity (ln)
1,TTTATTTATTATTAAAGTACTAAATTACATTATTAT [XGTACX_site6624],8.1 ± 0.28
2,TATTTAATTACATGAACACACATTAGATATTTTTAA [CACACA_site7405],8.14 ± 0.44
3,AAAATAAATAGATAAGCACACAAGCATATAGACATA [CACACA_site7958],8.7 ± 0.53
4,TAATTTCTTATGTATTGTACATATAATATATGATAT [XGTACX_site4898],8.52 ± 0.41
5,AATATATTTATGCTCATGCACTTTTTTTTTTTTTTT [GTGCAC_site9654],8.48 ± 0.28
6,ATGTACATTTTTTTCACACATACATTAATTTATGAG [CACACA_site5801],8.82 ± 0.44
7,AGAATAAAAAGGAACACACACACACCCATATATATA [CACACA_site3590],8.86 ± 0.32
8,TATGTTATATTATAAGGATAAATTTTGATTATATAA [TGCATGCA_negctrl_site600],8.07 ± 0.36
9,TATATTTACATTGTAACACACATGAAATATTTATAT [CACACA_site6178],8.37 ± 0.34
10,TAGACTAATCCCAAAAGTACAGAAAAATTATATTAT [XGTACX_site8663],8.49 ± 0.41
11,TATATTATATATTGGGGTACATATATATAAATATAA [XGTACX_site2296],8.71 ± 0.42
12,TATCAATATTAAAAAGTGCAAAATAAAATATAAAAT [GTGCAC_site9486],9.05 ± 0.37
13,CGTAGCCCCACTAACACACACAAATATACTCAATCA [CACACA_site5587],8.59 ± 0.61
14,AGTTTTTATTAAAACAAAATTTAATTATAACGTTGA [XGTACX_negctrl_site298],8.08 ± 0.3
15,TATATATATATATACACACATACATATATATATTTG [CACACA_site857],10.1 ± 0.3
16,TTATATGTATGAACAAGTACATGCTATAATTATAAA [XGTACX_site1399],8.38 ± 0.38
17,ATATATATATATATATGTACATATATACATATATGT [XGTACX_site1521],10 ± 0.49
18,AGTAGTCTGGAGAAGAGTACATAGTTTCTGGTAGCT [XGTACX_site2023],8.57 ± 0.42
19,AATAACTATATATGTGTGCACAAAAATTTGACATAA,8.99 ± 0.18

row,Sequence,gcPBM binding intensity (ln)
1,TTTTTTTTTTTTTGATGTACAATAATTAAAGAGTAA [XGTACX_site8403],8.32 ± 0.54
2,GTATATATATATATATGTACATATTTAGAGTTCTGT [XGTACX_site5357],8.65 ± 0.22
3,ATATTTACCATTGTATGTACATATATAAAATATATC [XGTACX_site3237],8.63 ± 0.36
4,AACATATACACGAACACACACACATATATATATATA [CACACA_site502],10.1 ± 0.38
5,TAAAGAAAAAAATGTTGTACTTTATGAAACATATTT [XGTACX_site412],8.23 ± 0.3
6,AAAACAAATGAGTACACACACATAAAAATTGAAAAT [CACACA_site199],8.78 ± 0.47
7,ACACTATCTTAGATTTGTACATATTTATATATGTAT [XGTACX_site8739],8.55 ± 0.38
8,TCGGTATCTGTTCAAAGTACACATTTGTATACAAAA [XGTACX_site1890],8.62 ± 0.33
9,TATATAACATATGGGACACACATGCAACTGTTATAT [CACACA_site3792],8.97 ± 0.25
10,ATGTGATGTTATATATGTACTTATTTTTTAATAAGG [XGTACX_site1786],8.54 ± 0.28
11,TTTTTATATTATTTAATGAGAAATAATTATAAACAA [CACACA_negctrl_site553],8.1 ± 0.29
12,AAAAATATTATGATGTTTATTAGAAAGGAAAAAACT [CACACA_negctrl_site1417],8.55 ± 0.42
13,TGCTTATCCATTTCTACACACAAAAAAAAAAAAAAA [CACACA_site37],8.28 ± 0.28
14,TTATATTATAACAAACGTACGAATTTTATACAAATA [XGTACX_site7258],8.39 ± 0.34
15,AAATGGGTTTATTTAACACACAAAAGAAAAAATATA [CACACA_site1938],8.65 ± 0.45
16,TATATATATTTATGTTGTACAAAATATTATTACGTA [XGTACX_site5384],8.32 ± 0.12
17,TATTTTTACAATGGTAGTACCATTTTGAATCTTTGT [XGTACX_site6092],8.59 ± 0.33
18,CACCCGCACGTATTTGCACACATTGCCACGTAATTA [CACACA_site5786],9.1 ± 0.35
